According to the supplement of paper PMC12217912:
Some of the results follow. The full chains were built here from the parent and the listed change. Inactive controls read about 0.05.

B1: TEV protease; numbered along this chain (parent)
chain: MGESLFKGPRDYNPISSSICHLTNESDGHTTSLYGIGFGPFIITNKHLFRRNNGTLVVQSLHGVFKVKDTTTLQQHLVDGRDMIIIRMPKDFPPFPQKLKFREPQREERICLVTTNFQTKSMSSMVSDTSCTFPSGDGIFWKHWIQTKDGQCGSPLVSTRDGFIVGIHSASNFTNTNNYFTSVPKNFMELLTNQEAQQWVSGWRLNADSVLWGGHKVFMVKPEEPFQPVKEATQL

Variants of: B1
Assay: raw area under fraction-flipped curve 0-4 h after induction (AUC4h, not background-subtracted), DNA-recorder readout of cleavage of the substrate (dimensionless); higher = more cleavage of the substrate by the protease variant
Details: temperature: 34 °C; time window: 0-4 h after rhamnose induction
Experimental: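 In vivo DNA recorder in E. coli TOP10(DE3) ΔrhaA at 34 °C. Each TEVp single-site mutant (parent TEVp 0) is paired with a single-site variant of the 7-mer TEVs (canonical ENLYFQ|S). The substrate sits between flexible linkers in a Bxb1-sfGFP-TEVs-SsrA fusion, so cleavage stabilises Bxb1 and speeds flipping of a recombination array, read by NGS. The value is the raw area under the fraction-flipped curve over 0-4 h after rhamnose induction (AUC4h), with ≥20 reads per time point. It is not background-subtracted; inactive controls average about 0.047.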
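Note: Bxb1 expression induced with 0.2% (w/v) L-rhamnose at OD600 near 0.5, cultures sampled hourly, flipped fraction per protease–substrate barcode pair counted by paired-end Illumina sequencing.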

| Variant | area with substrate ENLYCQS | area with substrate ENLYDQS | area with substrate ENLYEQS | area with substrate ENLYGQS | area with substrate ENLYHQS | area with substrate ENLYIQS | area with substrate ENLYKQS | area with substrate ENLYMQS | area with substrate ENLYNQS | area with substrate ENLYPQS | area with substrate ENLYQQS | area with substrate ENLYRQS | area with substrate ENLYSQS | area with substrate ENLYVQS | area with substrate ENLYWQS | area with substrate ENLYYQS | area with substrate ENLYTQS | area with substrate ENLYLQS |
| --- | --- | --- | --- | --- | --- | --- | --- | --- | --- | --- | --- | --- | --- | --- | --- | --- | --- | --- |
| MGESLFKGPRDYNPISSSICHLTNESDGHTTSLYGIGFGPFIITYKHLFRRNNGTLVVQSLHGVFKVKDTTTLQQHLVDGRDMIIIRMPKDFPPFPQKLKFREPQREERICLVTTNFQTKSMSSMVSDTSCTFPSGDGIFWKHWIQTKDGQCGSPLVSTRDGFIVGIHSASNFTNTNNYFTSVPKNFMELLTNQEAQQWVSGWRLNADSVLWGGHKVFMVKPEEPFQPVKEATQL [N45Y] | 0.0582 | 0.0548 | 0.0612 | 0.0629 | 0.0526 | 0.0616 | 0.0151 | 0.0587 | 0.0489 | 0.0619 | 0.0639 | 0.0634 | 0.0581 | 0.0561 | 0.034 | 0.0667 |  |  |
| MGESLFKGPRDYNPISSSICHLTNESDGHTTSLYGIGFGPFIITLKHLFRRNNGTLVVQSLHGVFKVKDTTTLQQHLVDGRDMIIIRMPKDFPPFPQKLKFREPQREERICLVTTNFQTKSMSSMVSDTSCTFPSGDGIFWKHWIQTKDGQCGSPLVSTRDGFIVGIHSASNFTNTNNYFTSVPKNFMELLTNQEAQQWVSGWRLNADSVLWGGHKVFMVKPEEPFQPVKEATQL [N45L] | 0.0581 | 0.0624 | 0.0561 | 0.0509 | 0.0586 | 0.0632 | 0.0596 | 0.0512 | 0.0456 |  | 0.0581 | 0.0589 | 0.0673 | 0.0539 | 0.0554 | 0.0625 |  |  |
| MGESLFKGPRDYNPISSSICHLTNESDGHTTSLYGIGFGPFIITNKHLFRRNNGTLVVQSLHGVFKVKDTTFLQQHLVDGRDMIIIRMPKDFPPFPQKLKFREPQREERICLVTTNFQTKSMSSMVSDTSCTFPSGDGIFWKHWIQTKDGQCGSPLVSTRDGFIVGIHSASNFTNTNNYFTSVPKNFMELLTNQEAQQWVSGWRLNADSVLWGGHKVFMVKPEEPFQPVKEATQL [T72F] | 0.0659 | 0.0666 | 0.0681 | 0.0555 | 0.0593 | 0.0935 | 0.0606 | 0.0903 | 0.0582 | 0.0759 | 0.0644 | 0.0651 | 0.0749 | 0.112 |  | 0.0618 | 0.0496 |  |
| MGESLFKGPRDYNPISSSICHLTNESDGHTTSLYGIGFGPFIITNKHLFRRNNGQLVVQSLHGVFKVKDTTTLQQHLVDGRDMIIIRMPKDFPPFPQKLKFREPQREERICLVTTNFQTKSMSSMVSDTSCTFPSGDGIFWKHWIQTKDGQCGSPLVSTRDGFIVGIHSASNFTNTNNYFTSVPKNFMELLTNQEAQQWVSGWRLNADSVLWGGHKVFMVKPEEPFQPVKEATQL [T55Q] | 0.0876 | 0.0617 | 0.0648 | 0.0637 | 0.0604 | 0.14 | 0.0551 | 0.0869 |  | 0.0713 | 0.0544 | 0.0733 | 0.074 | 0.116 | 0.0848 | 0.062 | 0.0841 |  |
| MGESLFKGPRDYNPISSSICHLTNESDGHTTSLYGIGFGPFIITNKHLFRRNNGTLVVQSLHGIFKVKDTTTLQQHLVDGRDMIIIRMPKDFPPFPQKLKFREPQREERICLVTTNFQTKSMSSMVSDTSCTFPSGDGIFWKHWIQTKDGQCGSPLVSTRDGFIVGIHSASNFTNTNNYFTSVPKNFMELLTNQEAQQWVSGWRLNADSVLWGGHKVFMVKPEEPFQPVKEATQL [V64I] | 0.0826 |  | 0.0683 | 0.0724 | 0.0422 | 0.116 | 0.0598 |  | 0.0713 |  | 0.0426 |  |  | 0.124 | 0.0767 | 0.0507 |  | 0.0769 |
| MGESLFKGPRDYNPISSSICHLTNESDGHTTSLYGIGFGPFIITNKHLFRRNNGTRVVQSLHGVFKVKDTTTLQQHLVDGRDMIIIRMPKDFPPFPQKLKFREPQREERICLVTTNFQTKSMSSMVSDTSCTFPSGDGIFWKHWIQTKDGQCGSPLVSTRDGFIVGIHSASNFTNTNNYFTSVPKNFMELLTNQEAQQWVSGWRLNADSVLWGGHKVFMVKPEEPFQPVKEATQL [L56R] | 0.0451 | 0.0508 | 0.0437 | 0.0478 |  | 0.0578 | 0.0535 | 0.0412 | 0.0465 | 0.044 | 0.0447 | 0.0509 | 0.0569 | 0.0594 | 0.042 | 0.0215 |  |  |
| MGESLFKGPRDYNPISSSICHLTNESDGHTTSLYGIGFGPFIITNKHLFRRNNGTKVVQSLHGVFKVKDTTTLQQHLVDGRDMIIIRMPKDFPPFPQKLKFREPQREERICLVTTNFQTKSMSSMVSDTSCTFPSGDGIFWKHWIQTKDGQCGSPLVSTRDGFIVGIHSASNFTNTNNYFTSVPKNFMELLTNQEAQQWVSGWRLNADSVLWGGHKVFMVKPEEPFQPVKEATQL [L56K] | 0.0511 | 0.0359 | 0.0634 | 0.0445 | 0.0588 | 0.0249 | 0.0291 | 0.0465 |  | 0.046 |  | 0.0428 | 0.0428 | 0.0408 | 0.0499 |  | 0.0362 |  |
| MGESLFKGPRDYNPISSSICHLTNESDGHTTSLYGIGFGPFIITNKHLFRRNNGTHVVQSLHGVFKVKDTTTLQQHLVDGRDMIIIRMPKDFPPFPQKLKFREPQREERICLVTTNFQTKSMSSMVSDTSCTFPSGDGIFWKHWIQTKDGQCGSPLVSTRDGFIVGIHSASNFTNTNNYFTSVPKNFMELLTNQEAQQWVSGWRLNADSVLWGGHKVFMVKPEEPFQPVKEATQL [L56H] | 0.0951 |  | 0.0369 | 0.0399 | 0.0305 | 0.0634 |  |  | 0.0485 | 0.0435 |  | 0.0688 |  |  |  |  | 0.0329 |  |
| MGESLFKGPRDYNPISSSICHLTNESDGHTTSLYGIGFGPFIITNKHLFRRNNGTLVVQSLHGVFKVKDTTTLSQHLVDGRDMIIIRMPKDFPPFPQKLKFREPQREERICLVTTNFQTKSMSSMVSDTSCTFPSGDGIFWKHWIQTKDGQCGSPLVSTRDGFIVGIHSASNFTNTNNYFTSVPKNFMELLTNQEAQQWVSGWRLNADSVLWGGHKVFMVKPEEPFQPVKEATQL [Q74S] | 0.0665 | 0.0693 | 0.0615 |  |  | 0.12 | 0.0641 |  |  |  |  | 0.0688 |  |  | 0.0787 | 0.0663 |  | 0.0931 |
